# The whole screen tested about 410,000 compounds, of which about 7,200 (1.8%) were called active. This list was built around the results that the source calls inconclusive (neither active nor inactive); the mix of calls is not that of the screen. Calls come from the whole dose curve; as a rule, active = well fitted activation curve with a large enough effect; inconclusive = small, poorly fitted or top-dose-only effect, or another doubt; inactive = no such curve, though single readings can be large or run the other way. No potency is given beside an inconclusive call; the fits are too rough.
# Test: qHTS of TDP-43 Inhibitors; note: nearly all actives have a fitted effect of over 50% in size; for growth rescue (activation): % of control where 0% means no effect
# Conditions: TDP-43 expressing yeast growth rescue, BacTiter-Glo, 24 h; growth rescue (activation): at 46.1 µM (top of the series) unless noted
# Summary of the method: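 In this qHTS, compounds that restore growth of yeast expressing TDP-43 appear as activators. Cells (OD600=0.02, galactose medium, raffinose-pregrown) are incubated with compound 24 hr at 30 deg C and growth is quantified by BacTiter-Glo.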
# Potency is the fitted concentration of half-maximal effect; tags give direction and shape of the fitted curve.
SMILES,Potency,growth rescue (activation)
CC(/C=N/NC(=O)c1c(Br)cnn1C)=C\c1ccccc1,"inconclusive [activator, full curve]",
C/C(Cl)=C/CSc1nn2c(=O)c3ccccc3nc2s1,"inconclusive [activator, partial curve]",
Cn1cc(Br)c(C(=O)NN2C(=O)C3C(C2=O)C2C=CC3C23CC3)n1 (stereo not drawn),,inactive: 13.9%
N/C(Cc1ccc([N+](=O)[O-])cc1)=N\OC(=O)C(c1ccccc1)c1ccccc1,"inconclusive [activator, single point]",
CC1(C)CCC(=O)N2CC[C@H]3C[C@H](OC(=O)Nc4ccc5c(c4)OCO5)C[C@@H]1[C@H]32,"inconclusive [activator, partial curve]",
COc1ccc(Cl)cc1NC(=S)NC1CCCC1,"inconclusive [activator, single point]",
Cc1ccc2cc(CCNC(=O)c3ccc(Br)o3)c(=O)[nH]c2c1,"inconclusive [activator, partial curve]",
Cc1onc(-c2ccccc2Cl)c1C(=O)N1CCN(c2nc3ccccc3s2)CC1,"inconclusive [activator, partial curve]",
FCCCOc1ccc(-c2ccnc3ncnn23)cc1,active: 22.4 µM,
COc1ccccc1Cc1c(-c2ccco2)nc2c(C)cc(Br)cn12,,inconclusive: -64.8% [activator]
O=C(Cc1ccc(Cl)cc1)Nc1ccccc1N1CCN(C(=O)c2ccccc2)CC1,"inconclusive [activator, single point]",
Cc1cc(Br)cn2c(Cc3cccc(F)c3)c(-c3ccc(Cl)cc3)nc12,"inconclusive [activator, full curve, poor fit]",
CCc1ccc(-c2cc(C)no2)cc1S(=O)(=O)N1CCN(C(=O)c2ccco2)CC1,"inconclusive [activator, single point]",
COCCNC(=S)N(CCc1c(C)[nH]c2ccc(F)cc12)Cc1cccs1,"inconclusive [activator, single point]",
CN(Cc1ccccc1)C(=O)c1ccc(NC(=O)C2=CSCCO2)cc1,"inconclusive [activator, partial curve]",
CCOC(=O)c1c(C)nc2c(c(SC)nn2-c2ccccc2)c1N,,inactive: -1.33%
COc1ccc(/C=C/c2ccc3c(Br)ccc(O)c3n2)cc1,"inconclusive [activator, single point]",
O=[N+]([O-])c1nn(-c2ccc3c(c2)OCCO3)n(O)c1=NCCC1=CCCCC1,active: 14.1 µM,
Cc1[nH]n(-c2ccccc2)c(=O)c1C(c1ccccc1[N+](=O)[O-])C(C#N)C#N (stereo not drawn),"inconclusive [activator, single point]",
CC(=NNC(=S)SCc1ccccc1)c1ccccn1,,inconclusive: -92.1% [activator]
COc1cc(/C=C/c2nc(N)nc(-c3ccccc3O)n2)cc(OC)c1OC,,inactive: -8.62%
Cc1ccc(C)c(N2C(=O)CC(Cc3ccc(Cl)cc3)C2=O)c1 (stereo not drawn),"inconclusive [activator, single point]",
O=[N+]([O-])c1ccc(S(=O)(=O)N/N=C/c2cccs2)cc1,"inconclusive [activator, full curve, poor fit]",

SMILES,Potency,growth rescue (activation)
CCc1ccc(C(=O)CCC(=O)Nc2cccc(S(=O)(=O)N3CCCCC3)c2)cc1,,inactive: -16.7%
COc1cc(/C=N/O)cc(Br)c1OC,"inconclusive [activator, single point]",
COc1cccc(Nc2nc(C(N)Cc3ccc(Cl)cc3)cs2)n1 (stereo not drawn),"inconclusive [activator, full curve, poor fit]",
COc1ccc(N2c3ccccc3CN(Cc3ccccc3)[C@@H](C)[C@H]2Cc2cccnc2)cc1,"inconclusive [activator, single point]",
CCOc1cc(C2C(C(=O)OC)=C(C)NC3=C2C(=O)c2ccccc23)ccc1OC (stereo not drawn),"inconclusive [activator, partial curve, poor fit]",
O=C1CSC2(C(=O)N(Cc3ccccc3F)c3ccccc32)N1c1cccc(C(F)(F)F)c1 (stereo not drawn),,inactive: 0%
CC(C)Oc1ccc(C(=O)N2CCC(c3nc4ccccc4o3)CC2)cc1,,inactive: 27.1%
Brc1ccc(C2CC(c3ccccc3)=Nc3ccccc3N2)cc1 (stereo not drawn),"inconclusive [activator, single point]",
Cc1cc(OCC(O)CN(C)C(=O)C(C)Oc2ccccc2)ccc1Cl (stereo not drawn),"inconclusive [activator, partial curve, poor fit]",
CC(C)c1ccc(NC(=O)CSC2=Nc3ccccc3C3=NC(CC(=O)NCc4cccs4)C(=O)N23)cc1 (stereo not drawn),"inconclusive [activator, single point]",
COc1cccc(C(=O)Nc2nc3ccc(S(=O)(=O)N4CCCC4)cc3s2)c1,"inconclusive [activator, partial curve, poor fit]",
CC1CCC(N2CC(=O)N(C3CCCCC3)C(c3ccc(Cl)cc3)C2=O)CC1 (stereo not drawn),,inactive: -9.09%
Fc1c(F)c(C(F)(F)F)c(F)c(F)c1N/N=C\c1cccs1,"inconclusive [activator, partial curve]",
Cc1ccc(Cn2c(C)c(C(=O)NCc3cccs3)sc2=O)cc1,"inconclusive [activator, single point]",
COc1ccc(NC(=O)CSCC(=O)N(C)Cc2ccc(Cl)c(Cl)c2)cc1,"inconclusive [activator, single point]",
CCOC(=O)C1CCCN(C(=O)COc2ccc(C(=O)c3ccc(F)cc3)cc2)C1 (stereo not drawn),"inconclusive [activator, partial curve]",
CCOC(=O)c1c(N)sc2c1CCC(CC)C2 (stereo not drawn),,inactive: 10.3%
O=C(COc1ccccc1)NC1CCSc2ccccc21 (stereo not drawn),"inconclusive [activator, single point]",
CCOc1ccc(NC(=O)CN(c2cccc(C(F)(F)F)c2)S(C)(=O)=O)cc1,active: 12.6 µM,
Cc1ccc(OCC(=O)Nc2nonc2-c2ccc(C)c(C)c2)cc1C,,inactive: 14.1%
Nc1ccc(Oc2ccc3nc(-c4ccccc4)c(-c4ccc([N+](=O)[O-])cc4)nc3c2)cc1,"inconclusive [activator, single point]",
Clc1ccccc1N1CCN(Cc2c[nH]c3ccccc23)CC1,,inactive: 7.14%
S=C(NCCc1ccccc1)N1CCC2CC1c1c(Cl)cccc12 (stereo not drawn),"inconclusive [activator, full curve, poor fit]",

SMILES,Potency,growth rescue (activation)
O=C1CSCN1c1ccc(Cl)cc1,"inconclusive [activator, partial curve]",
Clc1ccc(-c2nc3ccccc3nc2-c2ccccc2)cc1,"inconclusive [activator, single point]",
Cc1[nH]c2ccccc2c1C(=O)C(=O)N1CCN(c2cccc(Cl)c2)CC1,"inconclusive [activator, single point]",
Cc1nn(-c2ncc(C(F)(F)F)cc2Cl)c(=O)n1-c1ccccc1Cl,"inconclusive [activator, partial curve]",
Cc1ccccc1CC1(CO)CCCN(C(=O)c2cc(Cl)ccc2F)C1 (stereo not drawn),"inconclusive [activator, single point]",
CCN(C(=O)CSc1nc2cc(C(F)(F)F)ccc2n1Cc1ccccc1)C1CCS(=O)(=O)C1 (stereo not drawn),,inactive: 15%
CCOC(=O)c1c(Nc2ccc(O)cc2)nnc(-c2ccccc2)c1-c1ccccc1,,inactive: 20%
CC12CCC(C(=O)N(CSC(=S)N/N=C\c3ccccc3)C1=O)C2(C)C (stereo not drawn),"inconclusive [activator, partial curve]",
Cc1ccc(NC(=S)NCCc2c[nH]c3ccccc23)c(C)c1,"inconclusive [activator, single point]",
CCC(CC)C(=O)N1CCN(c2cccc(C)c2C)CC1,"inconclusive [activator, single point]",
COc1ccc(CCC(=O)Nc2nc3ccccc3[nH]2)cc1,,inactive: -2.25%
CSc1ccc(CNC(=O)C2CCC(=O)N(Cc3cccc(F)c3)C2)cc1 (stereo not drawn),"inconclusive [activator, partial curve]",
CC(=O)c1cc(C)c(OC(=O)c2ccccc2)c(C)c1,"inconclusive [activator, single point]",
Fc1ccc(Nc2nc(SCc3cccc(Cl)c3)nc3ccccc23)cc1,"inconclusive [activator, partial curve]",
COc1ccc(CNC(=O)C(CCSC)NS(=O)(=O)c2ccc3c(c2)oc(=O)n3C)cc1 (stereo not drawn),,inactive: 3.67%
c1ccc(-c2nc(-c3cccs3)[nH]c2-c2ccccc2)cc1,,inactive: 0.501%
O=C(Nc1ccc(C(=O)N2CCCCC2)cc1)c1nsc2ccccc12,"inconclusive [activator, partial curve]",
O=C(Nc1nc2n(n1)C(c1ccccc1)C=C(c1ccccc1)N2)c1ccccc1 (stereo not drawn),"inconclusive [activator, partial curve, poor fit]",
COCc1c(C(=O)N2CCN(c3ccc(C(F)(F)F)cn3)CC2)oc2ccccc12,"inconclusive [activator, partial curve]",
CC(C)CC(=O)NC(=S)NNC(=O)c1ccc([N+](=O)[O-])cc1,active: 17.8 µM,
CSc1ccccc1NC(=O)N1CCCC(C(=O)c2ccc3c(c2)OCO3)C1 (stereo not drawn),active: 15.8 µM,
Cc1ccc(CN2CC(C(=O)N3CCN(c4ccccc4O)CC3)CC2=O)cc1 (stereo not drawn),,inactive: 21%

# Source: PubChem BioAssay AID652104 (National Center for Advancing Translational Sciences (NCATS), 2013)
